Experiment in all cases: Primary Screen for Target Class Profiling of Small Molecule Inhibitors of Methyltransferases
In test [1] the target is Glycine N-methyltransferase (Homo sapiens) (UniProt Q14749). As to conditions: purified enzyme, MTase-Glo SAH luminescence; measured here: GNMT inhibition; at 40 µM; stronger effect = lower value. From the text: (§1) PI: Matthew D. Hall Ph.D. and Quinlin M. Hanson Ph.D.
(§2) National Center for Advancing Translational Sciences (NCATS)
(§3) National Institute of Health (NIH), Rockville, MD
(§4) Target class profiling (TCP) is a chemical biology approach amenable to investigating understudied biological targets. TCP is achieved by developing a generalizable assay platform and applying it to screen a curated set of compound libraries against representative members of a target class. Small molecule methyltransferases (SMMTase) are a subclass of methyltransferase that act on metabolites to modulate signaling pathways, metabolize xenobiotics, or balance the available methyl pool. We screened four curated libraries totaling 27,574 unique compounds against the SMMTases nicotinamide N-methyltransferase (NNMT), phenylethanolamine N-methyltransferase (PNMT), histamine N-methyltransferase (HNMT), glycine N-methyltransferase (GNMT), catechol O-methyltransferase (COMT), and guanidinoacetate N-methyltransferase (GAMT). The data generated by this TCP can be leveraged for informed tool molecule development. For example, in the associated publication we identified a chemotype of HNMT-selective inhibitors. Additionally, we identified a putative SMMTase-selective inhibitor with potential as a tool molecule for studying broader methyltransferase biology.
(§5) High-through put screening assays were developed at the National Center for Advancing Translational Science (NCATS) for the enzymes NNMT, PNMT, HNMT, GNMT, COMT, and GAMT. Enzymatic activity was measured as a function of SAM cofactor conversion using the MTase Glo kit (Promega) for all enzymes. All assays were performed in 1536-well format with substrates and SAM concentrations at KM values. Enzyme concentration and assay timing were optimized for 10-20% SAM conversion. Initial screening of 27,574 compounds was done as single-point assays using the highest compound concentration (40 uM). […] These compounds were replated in 11-point dose response and assayed against NNMT, PNMT, HNMT, GNMT, COMT, GAMT, and a counter-assay. The IC50 and efficacy (maximal response) values were determined for each dose-response curve. These values are also accounted for in the area under the curve (AUC) values.
(§6) PROTOCOL TABLE (as described by Inglese J, Shamu CE and Guy RK. 2007)
(§7) SEQUENCE No. (e.g., 1, 2, 3, etc.); […] (e.g., Cells, Incubation, Reagent, etc.); VALUE; DESCRIPTION.
(§8) 1; Reagent; 2 uL; SMMTase Enzyme (2x) in reaction buffer, columns 1- 48.
(§9) 2; Reagent; 1 uL; SAM (4x) in reaction buffer, columns 1-48.
(§10) 3; Controls; 23 nL; DMSO in column 4; sinefungin in DMSO (0 uM - 40 uM) in 7-point 1:2 dilution series (n = 2) in column 2.
(§11) 4; Compounds; 23 nL; Columns 5-48.
(§12) 5; Reagent; 1 uL; Substrate (4x) in reaction buffer, columns 2-48.
(§13) 6; Time; 20-30 min; Incubation.
(§14) 7; Reagent; 1 uL; MTase-Glo reagent (5X), columns 1-48.
(§15) 8; Time; 30 min; Incubation.
(§16) 9; Reagent; 5 uL; MTase-Glo Detection reagent, columns 1-48.
(§17) 10; Time; 30 min; Incubation, luminescence evolution.
(§18) 11; Detection; Luminescence; ViewLux uHTS Microplate Imager (PerkinElmer).
(§19) NOTES (numbers refer to Sequence numbers above)
(§20) 1, 2, 5. White Medium Binding Greiner 1536-well plates (Cat #789175-F, Greiner Bio-One, Monroe, NC); Reaction buffer: 50 mM Tris, pH 8.0, 3 mM MgCl2, 1 mM EDTA, 50 mM NaCl, 1 mM DTT, and 0.1 mg/mL BSA. Evaporation was prevented by covering assay plates with metal lids containing holes to allow gas diffusion.
(§21) 1. Six SMMTase were profiled: HNMT, GNMT, PNMT, COMT, NNMT, GAMT
(§22) 5. The corresponding substrate was used for each enzyme: HNMT - 5.3 uM Histamine; GNMT - >500 uM Glycine; PNMT - 16.2 uM Norephinephrine; COMT - 13.7 uM Norephinephrine; NNMT - 3.8 uM Nicotinamide; GAMT - 2.5 uM Guanidinoacetate.6, 8, 10. Room temperature
(§23) 6. Final reaction conditions: 10 nM COMT, 5 uM SAM, 15 uM norepinephrine, 50 mM Tris, pH 8.0, 3 mM MgCl2, 1 mM EDTA, 50 mM NaCl, 1 mM DTT, and 0.1 mg/mL BSA; refer to tables 2 and S1 for specific timing.
8. […]

The target of test [2] is Guanidinoacetate N-methyltransferase (Homo sapiens) (UniProt Q14353). The following applies: purified enzyme, MTase-Glo SAH luminescence; measured here: GAMT inhibition; at 40 µM; stronger effect = lower value.
Excerpt: as §1, §2, §3, §4, §5, §6, §7, §8, §9, §10, §11, §12, §13, §14, §15, §16, §17, §18, §19, §20, §21, §22, §23
8. […]

Test [3] has as its target Histamine N-methyltransferase (Homo sapiens) (UniProt P50135). The following applies: purified enzyme, MTase-Glo SAH luminescence; measured here: HNMT inhibition; at 40 µM; stronger effect = lower value.
Excerpt: as §1, §2, §3, §4, §5, §6, §7, §8, §9, §10, §11, §12, §13, §14, §15, §16, §17, §18, §19, §20, §21, §22, §23
8. […]

Test [4] concerns the target Nicotinamide N-methyltransferase (Homo sapiens) (UniProt P40261). As to conditions: purified enzyme, MTase-Glo SAH luminescence; measured here: NNMT inhibition; at 40 µM; stronger effect = lower value.
Excerpt: as §1, §2, §3, §4, §5, §6, §7, §8, §9, §10, §11, §12, §13, §14, §15, §16, §17, §18, §19, §20, §21, §22, §23
8. […]

Test [5] has as its target Phenylethanolamine N-methyltransferase (Homo sapiens) (UniProt P11086). As to conditions: purified enzyme, MTase-Glo SAH luminescence; measured here: PNMT inhibition; at 40 µM; stronger effect = lower value.
Excerpt: as §1, §2, §3, §4, §5, §6, §7, §8, §9, §10, §11, §12, §13, §14, §15, §16, §17, §18, §19, §20, §21, §22, §23
8. […]

Our source for the activity change, negative = inhibition values is PubChem BioAssay AID1745853 (National Center for Advancing Translational Sciences (NCATS), 2022).

Some of the results follow. Further columns of the screen follow, without active or inactive calls.
On the % scale 0 is the no-effect control and ±100 the full control effect.

`Cc1cc2c(cc1S(=O)(=O)N1CCN(c3cccc(C)c3C)CC1)n(C)c(=O)n2C`: the activity change, negative = inhibition in test [1] was 1.9%; in test [2], -0.632%; in test [3], -1.85%; in test [4], -6.38%; in test [5], -3.91%.

Consider `CC(C)CC(NC(=O)c1ccc(=O)[nH]c1)c1nnc2n1CCNCC2` (stereo not given), for which the activity change, negative = inhibition in test [1] was -2%; in test [2], 1.04%; in test [3], 0.527%; in test [4], 0.014%; in test [5], 2.95%.

Consider `C[C@@H]1O[C@@H](O[C@H]2[C@H](O[C@H]3[C@H](O[C@H]4CC[C@@]5(C)C(CC[C@]6(C)C5CC=C5[C@@H]7CC(C)(C)C[C@@H](O)[C@]7(C)CC[C@]56C)[C@@]4(C)CO)O[C@H](C(=O)O)[C@@H](O)[C@@H]3O)O[C@H](C(=O)O)[C@H](O)[C@@H]2O)[C@H](O)[C@H](O)[C@H]1O` (stereo not given in full), for which the activity change, negative = inhibition in test [1] is 0%; in test [2], 10%; in test [3] it was 9.6%; in test [4], -6.71%; in test [5], 1.01%.

`COc1ccc(-c2cc3n(n2)CC(C)(C(=O)NCc2ccccc2)N(Cc2ccc(SC)cc2)C3=O)cc1` (stereo not given): the activity change, negative = inhibition in test [1] is 5.56%; in test [2] it was 0.696%; in test [3] it was 7.47%; in test [4] it was 3.94%; in test [5], 1.42%.

With `O=C(Cn1nc2n(Cc3ccc(F)cc3)c(=O)c3ccccc3n2c1=O)Nc1ccc(F)cc1F`, the activity change, negative = inhibition in test [1] was -3.51%; in test [2], -0.295%; in test [3] it was 3.83%; in test [4], -7.8%; in test [5], -3.84%.

`COCCn1c(C)cnc1CCNS(=O)(=O)c1c(C)noc1C`: the activity change, negative = inhibition in test [1] was -2.75%; in test [2], -2.36%; in test [3] it was 0.302%; in test [4], -4.26%; in test [5], -7.21%.

Turning to `CC(NC1CCC2(CCNCC2)CC1)c1nc(-c2ccccn2)no1` (stereo not given), the activity change, negative = inhibition in test [1] was -2.97%; in test [2], -0.015%; in test [3], -5.67%; in test [4], -5.12%; in test [5], -0.47%.

As to `CCc1cccc(NC(=O)Cn2nc3n(C(C)C)c(=O)c4ccc(C(=O)NC5CCCC5)cc4n3c2=O)c1`, the activity change, negative = inhibition in test [1] turned out to be 4.03%; in test [2], 0%; in test [3], 6.6%; in test [4], 3.71%; in test [5], 2.89%.

On to `CC1(C(=O)NC2CCCCC2)Cn2nc(-c3cccs3)cc2C(=O)N1c1ccc(F)cc1F` (stereo not given), for which the activity change, negative = inhibition in test [1] was -2.07%; in test [2], 3.98%; in test [3], 3.27%; in test [4], 4.84%; in test [5] it was -2.47%.

`C=C1[C@H](OC(C)=O)[C@H]2[C@@H](OC(=O)c3ccccc3)[C@@H](C)C[C@]2(O)[C@@H](OC(C)=O)[C@H](C)/C=C/C(C)(C)C(=O)[C@H](OC(C)=O)[C@H]1OC(C)=O`: the activity change, negative = inhibition in test [1] is 2.47%; in test [2], 2.87%; in test [3], 8.64%; in test [4] it was -10.4%; in test [5] it was 3.91%.

For the molecule `COc1ccc(CCNC(=O)c2cc3n(n2)CC(C)(C(=O)NCCC(C)C)N(C)C3=O)cc1OC` (stereo not given), the activity change, negative = inhibition was found to be 2.4% in test [1]; 0.51% in test [2]; 9.42% in test [3]; 8.4% in test [4]; 5.2% in test [5].

For the molecule `CNC(=O)c1cccn2nccc12`, the activity change, negative = inhibition in test [1] is -5.09%; in test [2], -6.69%; in test [3] it was -2.25%; in test [4] it was -20.6%; in test [5], 11.1%.

As to `CC1=NS(=O)(=O)c2cc(Cl)ccc2N1`, the activity change, negative = inhibition in test [1] was 5.73%; in test [2] it was -1.54%; in test [3] it was 9.07%; in test [4], -7.14%; in test [5], -1.71%.

On to `CN1C(=O)c2cc(C(=O)NCCC3=CCCCC3)nn2CC1(C)C(=O)NCc1ccccc1` (stereo not given), for which the activity change, negative = inhibition in test [1] is -2.98%; in test [2] it was -5.32%; in test [3] it was 4.07%; in test [4], -2.15%; in test [5] it was -1.92%.
